Results as given in patent US7592316B2, “Peptides as NS3-serine protease inhibitors of hepatitis C virus” (Schering Corporation, priority 2000, dated 2009).

Target: HCV NS3/NS4A protease (strain 1a) (Hepatitis C virus genotype 1a, UniProt P27958)
Assay: biochemical
Conditions: Table 5; HCV NS3/NS4A protease, 30° C., pH 6.5; read-out: Ki* Range

Ki	Compound
101 to 1000 nM	C=CCCC(NC(=O)[C@@H]1[C@@H]2[C@H](CN1C(=O)[C@@H](NC(=O)OC(C)(C)C)C1CCCCC1)C2(C)C)C(=O)C(=O)NCC(=O)OC(C)(C)Cc1ccccc1 (some centres unmarked)
101 to 1000 nM	C=CCCC(NC(=O)[C@@H]1[C@@H]2[C@H](CN1C(=O)[C@@H](NC(=O)NC13CC4CC(CC(C4)C1)C3)C1CCCCC1)C2(C)C)C(=O)C(=O)NC/C=C/C(=O)NC(C)(C)C (some centres unmarked)
101 to 1000 nM	C=CCCC(NC(=O)[C@@H]1[C@H]2[C@@H](CN1C(=O)[C@@H](NC(=O)NC(C)c1ccccc1)C1Cc3ccccc3C1)C2(C)C)C(=O)C(=O)NCC=C (some centres unmarked) [drawing 1925]

Same assay, conditions: Table 5; HCV NS3/NS4A protease, spectrophotometric assay, 30° C., pH 6.5; read-out: Ki* Range

Ki	Compound
101 to 1000 nM	CCCC(NC(=O)[C@@H]1[C@@H]2[C@H](CN1C(=O)[C@@H](NC(=O)OC(C)(C)C)C(C)(C)C)C2(C)C)C(=O)C(=O)NCCC(=O)OC(C)(C)C (some centres unmarked)
101 to 1000 nM	C=CCNC(=O)C(=O)C(CC1CC1)NC(=O)[C@@H]1[C@@H]2[C@H](CN1C(=O)[C@@H](NC(=O)OC(C)(C)C)C1CCCCC1)C2(C)C (some centres unmarked)
101 to 1000 nM	C=CCCC(NC(=O)C1C2C(CN1C(=O)[C@@H](NC(=O)OC(C)(C)C)C(C)(C)C)C2(C)C)C(=O)C(=O)NC/C=C/C(=O)OCC (some centres unmarked)
1 to 100 nM	CC(C)(C)OC(=O)N[C@H](C(=O)N1C[C@H]2[C@@H]([C@H]1C(=O)NC(CCC1CC1)C(=O)C(=O)O)C2(C)C)C1CCCCC1 (some centres unmarked)
> 1000 nM	C=CCNC(=O)C(=O)C(CC(C)C)NC(=O)[C@@H]1[C@H]2[C@@H](CN1C(=O)[C@@H](NC(=O)OC(C)(C)C)C(C)(C)C)C2(C)C (some centres unmarked)
1 to 100 nM	CC(C)(C)OC(=O)NC(C(=O)N1C[C@H]2[C@@H]([C@H]1C(=O)NC(CC1CC1)C(=O)C(N)=O)C2(Cl)Cl)C1Cc2ccccc2C1 (some centres unmarked)
101 to 1000 nM	CC(C)(C)NC(=O)N[C@H](C(=O)N1C[C@H]2[C@@H]([C@H]1C(=O)NC(CC(F)(F)F)C(=O)C(N)=O)C2(C)C)C1CCCCC1 (some centres unmarked)
101 to 1000 nM	CCCC[C@@H](NC(=O)[C@@H]1[C@H]2OC(C)(C)O[C@H]2CN1C(=O)[C@@H](NC(=O)OC(C)(C)C)C(C)(C)C)C(=O)C(=O)NCC(=O)NC(C(=O)N(C)C)c1ccccc1 (some centres unmarked)
1 to 100 nM	CC(C)(C)NC(=O)N[C@H](C(=O)N1C[C@H]2[C@@H]([C@H]1C(=O)NC(CC1CC1)C(=O)C(N)=O)C2(C)C)C1CCCCC1 (some centres unmarked)
101 to 1000 nM	C=CCNC(=O)C(=O)C(CCC)NC(=O)[C@@H]1[C@@H]2[C@H](CN1C(=O)[C@@H](NC(=O)OC(C)(C)C)C1CCCCC1)C2(C)C (some centres unmarked)

Same assay, conditions: Table 6; HCV NS3/NS4A protease, 30° C., pH 6.5; read-out: Ki*

Ki	Compound
1 to 100 nM	Cc1ccc(S(=O)(=O)CNC(=O)C(=O)C(CC2CC2)NC(=O)[C@@H]2[C@@H]3[C@H](CN2C(=O)[C@@H](NC(=O)OC(C)(C)C)C2CCCCC2)C3(C)C)cc1 (some centres unmarked)
1 to 100 nM	CN(C)C(=O)[C@@H](NC(=O)CNC(=O)C(=O)C(CC1CCC1)NC(=O)[C@@H]1[C@H]2CC(C)(C)O[C@H]2CN1C(=O)[C@@H](NC(=O)OC(C)(C)C)C1(C)CCCCC1)c1ccccc1 (some centres unmarked)
1 to 100 nM	CC(C)(C)NC(=O)N[C@H](C(=O)N1C[C@H]2[C@@H]([C@H]1C(=O)NC(CC1CC1)C(=O)C(=O)NCC(=O)OC(C)(C)c1ccccc1)C2(Cl)Cl)C(C)(C)C (some centres unmarked)
101 to 1000 nM	CC(C)(C)NC(=O)N[C@H](C(=O)N1C[C@H]2[C@@H]([C@H]1C(=O)NC(CC1CCC1)C(=O)C(=O)NCC(=O)NC(C)(C)c1ccccc1)C2(C)C)C(C)(C)C (some centres unmarked)
101 to 1000 nM	C=CCCC(NC(=O)[C@@H]1[C@@H]2[C@H](CN1C(=O)[C@@H](NC(=O)OC(C)(C)C)C1CCCCC1)C2(C)C)C(=O)C(=O)NCCC(=O)N(C)Cc1ccccc1 (some centres unmarked)
1 to 100 nM	CC1(NC(=O)N[C@H](C(=O)N2C[C@H]3[C@@H]([C@H]2C(=O)NC(CC2CCC2)C(=O)C(N)=O)C3(C)C)C(C)(C)C)CCCCC1 (some centres unmarked)
1 to 100 nM	CC(C)(C)[C@H](NC(=O)NC(C)(C)C(F)(F)F)C(=O)N1C[C@H]2[C@@H]([C@H]1C(=O)NC(CC1CC1)C(=O)C(N)=O)C2(C)C (some centres unmarked)
101 to 1000 nM	CCCC(NC(=O)[C@@H]1[C@@H]2[C@H](CN1C(=O)[C@@H](NC(=O)NC(C)(C)C)C(C)(C)C)C2(C)C)C(=O)C(=O)NCCC(O)Cc1ccccc1 (some centres unmarked)
1 to 100 nM	CC1C[C@H]2CN(C(=O)[C@@H](NC(=O)OC(C)(C)C)C3CCCCC3)[C@H](C(=O)NC(CC3CC3)C(=O)C(=O)NCC(=O)N[C@H](C(=O)N(C)C)c3ccccc3)[C@H]2C1 (some centres unmarked)

Compound	Ki
CN(C)C(=O)[C@@H](NC(=O)CNC(=O)C(=O)C(CC1CC1)NC(=O)[C@@H]1[C@@H]2[C@H](CN1C(=O)[C@@H](NC(=O)N(C)C(C)(C)C)C(C)(C)C)C2(C)C)c1ccccc1 (stereo partly drawn) ({X106-CO}-[Tle][Pro(3R,4S-CMe2)][X8]G[Phg]-NMe2)	1 to 100 nM

*1 amine or outer side, *2 acyl side, *3 side chain or, on linkers, in order; H or OH if unused. Where a SMILES comes first, the peptide text is derived from it. [ ]: non-standard residue; d: D form. The star is where a group is joined. Pro(3R,4S-CMe2) = CC1(C)[C@@H]2[C@@H](C(=O)O)NC[C@@H]21; X8 = O=C(C(=O)[*:2])C(CC1CC1)N[*:1]; Phg = N[C@H](C(=O)O)c1ccccc1; Tle = CC(C)(C)[C@H](N)C(=O)O; CO = O=C([*:1])[*:2]; X106 = CN(C(C)(C)C)*
